From publication PMC12502762

Molecular target: PA domain 3 (Bacillus anthracis)
Assay: ELISA

Chain of PA domain 3 (Bacillus anthracis) (P13423 517-624 limits assumed): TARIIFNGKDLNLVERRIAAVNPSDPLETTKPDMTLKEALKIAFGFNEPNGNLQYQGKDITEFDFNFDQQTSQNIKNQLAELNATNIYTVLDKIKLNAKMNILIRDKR

B1: 2A6-8A7 DVD-Ig bispecific antibody (bispecific antibody)
chain 1: QVQLQESGPGLVKPSQTLSLTCTVSGGSISSGGYYWSWIRQHPGKGLEWIGYIYYSGRTYYNPSLKSRVTMAVHTSKNQYSLRLSSVTAADTAVYFCATGDGGVAGTFDFWGQGNLVTVSSASTKGPEVQLLESGGGLVQPGGSLRLSCAASGFSFSSYAMSWVRQAPGTGLEWVSGISGSGDNIYYADSVKGRFTISRDNSKNTVYMQMNSLRAEDTALYYCAKFSGHYGSGSFHLPEYFQHWGQGTLVTVSS[letters of human IgG1 constant region not shown]
chain 2: EIVMTQSPASLSVSPGEGATLSCRASQSIHSNLDWYQQKPGQAPRLLIYGASTRATGVPARFSGSVSGTEFTLTISSLQSEDFAVYYCQQYNNWPLTFGGGTKVEIKRTVAAPDIQMTQSPATLSASIGDRVTITCRASQSISSWLAWYQQKPGKAPKVLIYKASRLESGVPSRFSGSGSGTEFTLTISSLQPDDFATYYCQQYNTYWTFGQGTKVEIIRTVAAPSVFIFPPSDEQLKSGTASVVCLLNNFYPREAKVQWKVDNALQSGNSQESVTEQDSKDSTYSLSSTLTLSKADYEKHKVYACEVTHQGLSSPVTKSFNRGEC
EC50: 0.2 nM
